Among all 310,000 compounds or so, about 2,200 (0.71%) showed an effect of 50% or more. The effect is printed as a negative number. The list shows a part of the results.
Biological target: human ether-à-go-go-related gene (hERG) potassium channel (human, UniProt Q12809)
Assay: primary screen, population patch clamp on CHO cells stably expressing hERG

human ether-à-go-go-related gene (hERG) potassium channel, sequence (Q12809 whole entry, looked up): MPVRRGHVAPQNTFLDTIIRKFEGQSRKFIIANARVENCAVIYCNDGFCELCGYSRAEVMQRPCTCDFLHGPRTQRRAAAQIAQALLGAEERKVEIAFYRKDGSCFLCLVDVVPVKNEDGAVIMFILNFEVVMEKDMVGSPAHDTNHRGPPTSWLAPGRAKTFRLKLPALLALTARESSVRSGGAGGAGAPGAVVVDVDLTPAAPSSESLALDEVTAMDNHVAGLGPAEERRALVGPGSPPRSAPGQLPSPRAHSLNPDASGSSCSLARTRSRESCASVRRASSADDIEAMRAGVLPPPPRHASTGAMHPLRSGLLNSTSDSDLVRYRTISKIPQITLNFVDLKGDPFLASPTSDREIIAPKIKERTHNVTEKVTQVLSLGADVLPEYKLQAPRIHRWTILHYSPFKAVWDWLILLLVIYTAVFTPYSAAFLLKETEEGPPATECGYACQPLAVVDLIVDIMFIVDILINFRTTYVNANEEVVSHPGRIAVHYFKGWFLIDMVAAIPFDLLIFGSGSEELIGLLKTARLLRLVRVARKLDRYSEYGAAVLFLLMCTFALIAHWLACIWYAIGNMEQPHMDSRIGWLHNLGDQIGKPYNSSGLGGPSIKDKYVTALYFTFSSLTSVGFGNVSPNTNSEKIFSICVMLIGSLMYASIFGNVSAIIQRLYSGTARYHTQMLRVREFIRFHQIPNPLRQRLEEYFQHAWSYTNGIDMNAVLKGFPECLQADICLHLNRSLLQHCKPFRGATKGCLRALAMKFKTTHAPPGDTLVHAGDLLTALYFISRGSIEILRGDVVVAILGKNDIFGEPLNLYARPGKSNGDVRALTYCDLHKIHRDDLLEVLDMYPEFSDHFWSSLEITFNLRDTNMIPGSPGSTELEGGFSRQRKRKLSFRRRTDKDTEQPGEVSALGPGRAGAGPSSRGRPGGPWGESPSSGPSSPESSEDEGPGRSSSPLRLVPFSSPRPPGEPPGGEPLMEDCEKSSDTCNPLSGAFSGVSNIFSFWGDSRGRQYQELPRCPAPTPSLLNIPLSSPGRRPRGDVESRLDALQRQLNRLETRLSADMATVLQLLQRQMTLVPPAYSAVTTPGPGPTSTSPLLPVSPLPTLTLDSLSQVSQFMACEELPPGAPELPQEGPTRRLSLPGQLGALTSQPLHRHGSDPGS

Row | Structure (SMILES) | hERG current change (%, negative = inhibition) at 1uM [%]
1 | CCOc1ccccc1OCC(=O)NCCc1ccc(S(N)(=O)=O)cc1 | 12.1
2 | COC(=O)c1cc(S(=O)(=O)NCC(C)c2ccccc2)cn1C (stereo not drawn) | 3.17
3 | Cc1ccc(N2C(=O)c3oc4ccccc4c(=O)c3C2c2cccc(O)c2)nc1 (stereo not drawn) | 2.95
4 | C[C@@H]1NC(=O)OC1c1ccco1 (stereo partly drawn) | 8.5
5 | CCOC(=O)Cc1nnc(NC(=O)CSc2nnc3c(n2)[nH]c2ccccc23)s1 | 7.2
6 | Cc1nsc(N)c1C(=O)O | 14.2
7 | Cc1ccc(CC(=S)N2CCOCC2)cc1 | 11.6
8 | CSCCC(NC(=O)C1CCCC1)c1nnc2ccccn12 (stereo not drawn) | 13.1
9 | Cc1c(-c2cc(C(=O)O)on2)cnn1C | 10.8
10 | CCSc1nnc(NC(=O)c2csc3c2CCCC3)s1 | 7.57
11 | CN(C)S(=O)(=O)c1ccc(Cl)c(NC(=O)c2ccncc2)c1 | -0.0585
12 | Cn1c(=O)c2cc(S(=O)(=O)NC(C(=O)NCc3cccnc3)c3ccccc3)ccc2n(C)c1=O (stereo not drawn) | 6.03
13 | COc1ccc2oc(-c3cccc(NC(=O)CSc4ccc(Cl)cc4)c3)nc2c1 | 6.7
14 | CC(OC(=O)CC1CC2CCC1C2)C(=O)Nc1ccc(C(N)=O)cc1 (stereo not drawn) | 3.24
15 | Cc1ccsc1C(=O)C1CCCN(Cc2cnn(C)c2)C1 (stereo not drawn) | 16.1
16 | CC(OC(=O)c1ncc(Cl)c(Cl)c1Cl)C(=O)NC1(C#N)CCCCC1 (stereo not drawn) | 9.61
17 | CS(=O)(=O)n1nc(OC(=O)c2cccs2)cc1N | 17.6
18 | COc1ccc(OC)c(S(=O)(=O)Nc2c(C)cccc2C)c1 | 8.89
19 | COC(=O)CSc1nn(-c2ccc(F)cc2)c(=S)s1 | 9.9
20 | Cc1nc2ccccc2n1CCc1nc2c3ccccc3nc(SCC#N)n2n1 | -0.451
21 | COc1ccc(NC(=O)c2cccnc2)c(OC)c1 | 4.36
22 | CCc1nnc(NCC(=O)N2CCc3ccccc32)s1 | -5.38
23 | O=C(N1CCOCC1)N(Cc1ccccc1)c1ccccn1 | 2.98

Row | Structure (SMILES) | hERG current change (%, negative = inhibition) at 1uM [%]
24 | CC(C)OC(=O)NCCOC(=O)Nc1ccc(Cl)cc1 | 19.2
25 | O=C(c1cccc(C(F)(F)F)c1)C1CCCN(Cc2cccc(OCCO)c2)C1 (stereo not drawn) | -0.556
26 | CCOC(=O)n1c(=O)oc2ccc(Cl)cc21 | 9.61
27 | CC1CN(Cc2c(O)ccc3c(=O)c(-c4ccccc4Cl)coc23)CC(C)O1 (stereo not drawn) | 11
28 | O=C(Nc1cc2c(cc1Br)OCCO2)c1cccs1 | 21.4
29 | O=C(CCCO)N/N=C/c1cc(Br)ccc1O | 3.99
30 | Cc1cccc(OCC(=O)Nc2nnc(S(=O)(=O)N3CCCCCC3)s2)c1 | 11
31 | COc1ccc(NC(=O)c2ccco2)cc1NC(=O)c1cc2ccccc2o1 | 8.65
32 | O=C(NC1CCCCC1)N1CCSC1=Nc1ccccc1 | 3.66
33 | COC(=O)Cc1ccc(N(Cc2ccccc2F)S(=O)(=O)c2ccc(C)cc2)cc1 | 9.64
34 | COc1ccc(-c2cn[nH]c2C)cc1OC | 12.1
35 | Cc1ccccc1CC(=O)N1CCCC1 | 4.48
36 | Cc1cccc(Nc2cc(=O)[nH]c(=O)[nH]2)c1C | 6.12
37 | CC(C)c1ccccc1NC(=S)NC(C)c1ccccc1 (stereo not drawn) | 5.12
38 | CCCC(=O)c1ccc(CP(=O)(OCC)OCC)o1 | 20.8
39 | COC(=O)c1sccc1NC(=O)Nc1ccc(Cl)c(Cl)c1 | 19.4
40 | COC(=O)c1ccccc1NC(=O)c1noc2c1CC(C(C)(C)C)CC2 (stereo not drawn) | 4.8
41 | O=C(NNS(=O)(=O)c1ccc([N+](=O)[O-])cc1)c1ccc2ccccc2c1O | 14.4
42 | CC1CCc2sc(C(=O)NC3CCCCC3)cc2C1 (stereo not drawn) | 3.37
43 | CCOC(=O)c1csc(NC(=O)CN2CCOCC2)n1 | 11
44 | O=C(NCc1ccco1)C1CCN(S(=O)(=O)Cc2ccccc2)CC1 | -0.482
45 | O=C(Nc1ccnc(-c2ccncc2)n1)c1ccc(F)cc1 | 10.1
46 | CCOP(=O)(OCC)C(NC(C)=O)C(=O)c1ccccc1 (stereo not drawn) | 18.7

Row | Structure (SMILES) | hERG current change (%, negative = inhibition) at 1uM [%]
47 | COc1ccc2cc(C#N)c(SCC(=O)NNC(=O)Cc3ccccc3)nc2c1 | 10.5
48 | COC(=O)c1ccccc1NC(=O)c1ccccc1N(C)S(C)(=O)=O | 7.1
49 | O=c1[nH]c2ccc(S(=O)(=O)NCc3ccccc3)cc2[nH]1 | 17.5
50 | COc1cccc(N(CC(=O)NCCSCc2ccc(C)cc2)S(C)(=O)=O)c1 | 13.5
51 | CC1=C(C(=O)OCc2ccccc2)C(c2ccc(Br)cc2)NC(=O)N1CCCCCC(=O)O (stereo not drawn) | 10.6
52 | CCc1ccc2[nH]c(=O)c(CN(CCN(CC)CC)C(=O)Nc3ccccc3OC)cc2c1 | -50.7
53 | COC(=O)c1cnc(Nc2cccc(C(F)(F)F)c2)c([N+](=O)[O-])c1 | 0.104
54 | COC(=O)C1=C(C)N(c2ccc(F)c(Cl)c2)C(=O)C1 | -1.07
55 | Cc1ccc(-c2n[nH]c(=O)c3ccccc23)cc1S(=O)(=O)NCCO | -1.72
56 | COc1ccc(C(=O)CSc2nccn2C)c(OC)c1 | 7
57 | CC(C)Cn1c(C(C)NC(=O)Cc2ccccc2)nc2ccccc21 (stereo not drawn) | 9.17
58 | COc1ccc(-c2nnc(SCC(=O)N3CCC(Cc4ccccc4)CC3)o2)cc1OC | -3.62
59 | C=CCOc1ccccc1NC(=O)CN1C(=O)CNC1=O | 18.7
60 | Cc1nnc(NC(=O)c2ccc(S(=O)(=O)N3CCOCC3)cc2)s1 | 6.78
61 | O=C(C1=C[C@@H]2[C@H]3C(=O)N(c4ccc(Cl)cc4)C(=O)[C@H]3[C@@H](C(=O)c3ccc(Cl)cc3)N2C=C1)c1ccccc1 | 15.2
62 | O=c1nc(/C=C/c2ccc(-c3ccc(F)cc3)o2)cc(C(F)(F)F)[nH]1 | 13
63 | CN1CCN(CC(=O)Nc2cc(N(C)C)nc3ccccc23)CC1.Cl | 16.1
64 | C=CCc1cccc2cc(C(=O)Nc3ccc(F)cc3)c(=O)oc12 | 6.28
65 | O=C(NCc1ccc(Cl)cc1)c1ncn[nH]1 | 6.12
66 | O=C(Nc1cccc(NC(=O)c2cccnc2)c1)c1ccccc1 | 5.98
67 | COc1ccc(/C=C(/CC(=O)Nc2ccc(C)cc2)c2nc3ccccc3s2)cc1 | 10.4
68 | Oc1ccc(C(c2nnnn2CCc2ccccc2)N2CCN(c3nc4ccccc4s3)CC2)cc1 (stereo not drawn) | 10.7
69 | CCOC(=O)c1ccc(NC(=S)Nc2ccc(Cl)cn2)cc1 | 6.65

Row | Structure (SMILES) | hERG current change (%, negative = inhibition) at 1uM [%]
70 | CCOC(=O)C1CCCN(Cc2nc(CC3CC3)no2)C1 (stereo not drawn) | 12.5
71 | COc1cc(C(=O)Nc2nnc(Cc3ccccc3)s2)cc(OC)c1OC | 8.52
72 | Cc1cc2ncc(-c3ccccc3)nc2cc1C | 11.4
73 | C=CCn1c(O)c(C(CC)=Nc2ccc(N(C)C)cc2)c(=O)[nH]c1=O | 16.6
74 | CSc1nc(N2CCOCC2)c2c(c1C#N)CCCCC2 | 4.33
75 | COc1cc2cnc(-c3ccccc3)c(-c3ccc(C(F)(F)F)cc3)c2cc1OC | 14.9
76 | Cc1ccc(S(=O)(=O)N2CCC(C(=O)NCCC3=CCCCC3)CC2)c(C)c1 | 2.13
77 | O=C(c1ccc(NC(=O)C(c2ccccc2)c2ccccc2)cc1)c1ccc(C(=O)O)c(C(=O)O)c1 | 13.8
78 | COC(=O)c1ccc(NC(=O)CSc2nnc(C3CC3)n2C)cc1 | 6.77
79 | CCOC(=O)N1C(=O)[C@@](CC)(c2ccccc2)N1C(=O)OCC | 11.1
80 | C#CCOCCOCCOCCNc1nc(N2CCN(C(=O)[C@H]([C@@H](C)CC)n3cc([C@@H](N)CO)nn3)CC2)nc(N2CCN(C(=O)[C@H](Cc3ccc(O)cc3)n3cc([C@@H](N)CC(C)C)nn3)CC2)n1.Cl | -0.522
81 | CN(C)c1ccc(NC(=O)CN2C(=O)c3ccccc3C2=O)cc1 | 14.5
82 | Cc1[nH]c2ccccc2c1CN1CCC(Cc2ccccc2)CC1.O=C(O)C(=O)O | -19.4
83 | CCCn1c(=O)n(C)c(=O)c2c(SCC(=O)Nc3cc(C)on3)nc(C(C)(C)C)nc21 | 4.48
84 | O=C(O)CC(NC(=O)Cc1ccc(Cl)cc1)c1ccco1 (stereo not drawn) | 1.41
85 | CC1(OC(=O)c2ccc(Cl)nc2)C(=O)C=C2C=C(c3ccc(C#N)cc3)OC=C2C1=O (stereo not drawn) | 8.68
86 | O=C(/C=C/c1ccc2c(c1)OCO2)NCc1ccc(F)cc1 | 11.2
87 | COc1cc(NC(=O)COc2ccccc2C)ccc1NC(=O)c1ccco1 | 12.3
88 | CCN(CC)CCCN=C(C)c1c(O)n(-c2ccccc2)c(=O)[nH]c1=O | -16.4
89 | COc1ccccc1CNCC(=O)Nc1cc(S(=O)(=O)N2CCCCCC2)ccc1Cl | 8.12
90 | COc1ccccc1N1CCN(C(=O)c2sc3ncn(CC(=O)N4CCC(C)CC4)c(=O)c3c2C)CC1 | 7.63

Reference: paper PMC4336329 (PLoS ONE, 2015)
